# According to a collection of fitness landscapes (doi:10.1016/j.celrep.2020.107928):
# In all, about 81,000 sequences were measured (“one-hybrid fitness for binding NBS DNA”: median about -0.1, highest 2% from about 0.36 on). The list shows a part of the results.
# B1: Caulobacter ParB omega fusion; a variant is named by its letters at X, in order, B8GW30 (parent)
# chain: MESVVVGEPGMSEGRRGLGRGLSALLGEVDAAPAQAPGEQLGGSREAPIEILQRNPDQPRRTFREEDLEDLSNSIREKGVLQPILVRPSPDTAGEYQIVAGERAWRAAQRAGLKTVPIMVRELDDLAVLEIGIIENVQRADLNVLEEALSYKVLMEKFERTQENIAQTIGKSXSHVANXMRLLXLPDEVQSYLVSGELTAXHARAIAAAADPVALAKQIIEGGLSVRETEALARKAPNLSAGKSKGGRPPRVKDTDTQALESDLSSVLGLDVSIDHRGSTGTLTITYATLEQLDDLCNRLTRGI
# Variants of: B1
# Test: one-hybrid fitness for binding NBS DNA (the Noc-binding site; scaled: cognate 1, non-cognate 0); higher = stronger binding
# Details: with NBS DNA site
# In short: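 In E. coli USO, a HIS3 reporter with its site placed 19 bp from the promoter was used to select Caulobacter ParB variants randomised at four specificity codons. Growth lasted 48 hours at 37°C on histidine-free M9 containing 0.1 mM IPTG and 5 mM 3-AT. Fitness was taken as the log change in variant-to-wild-type read ratio from Illumina sequencing of pre- and post-selection plasmids, rescaled between the non-cognate and cognate sites.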
row,Variant,one-hybrid fitness for binding NBS DNA
1,FESG,≤ 0.2
2,NVVS,≤ 0.2
3,NELT,≤ 0.2
4,SWKY,≤ 0.2
5,GYRS,≤ 0.2
6,QTGG,0.204
7,MSLN,≤ 0.2
8,REEA,≤ 0.2
9,RASK,≤ 0.2
10,LNKW,≤ 0.2
11,MVRF,≤ 0.2
12,SAGS,≤ 0.2
13,HHQR,≤ 0.2
14,CPAR,≤ 0.2
15,HKNV,≤ 0.2
16,ALTA,≤ 0.2
17,VMTK,≤ 0.2
18,PEDL,≤ 0.2
19,GSKM,≤ 0.2
20,PFGN,≤ 0.2
21,TYSE,≤ 0.2
22,DSVI,≤ 0.2
23,NWPT,≤ 0.2
24,AYYC,≤ 0.2
25,FDSG,≤ 0.2
26,GNVT,≤ 0.2

row,Variant,one-hybrid fitness for binding NBS DNA
1,PTDE,≤ 0.2
2,QRHP,0.303
3,ANVP,≤ 0.2
4,LYFK,≤ 0.2
5,QALE,≤ 0.2
6,DFMG,≤ 0.2
7,LVTT,≤ 0.2
8,PFVC,≤ 0.2
9,GWRS,≤ 0.2
10,PGWC,≤ 0.2
11,RHLV,≤ 0.2
12,MPEN,≤ 0.2
13,PHPL,≤ 0.2
14,NTVQ,≤ 0.2
15,VYQC,≤ 0.2
16,TMKL,≤ 0.2
17,MVTN,≤ 0.2
18,DGKL,≤ 0.2
19,CTRT,≤ 0.2
20,SPNA,≤ 0.2
21,GRLD,≤ 0.2
22,NGEK,≤ 0.2
23,RSIK,≤ 0.2
24,SVAR,≤ 0.2
25,AYEG,≤ 0.2
26,ILKF,≤ 0.2

row,Variant,one-hybrid fitness for binding NBS DNA
1,RFWN,≤ 0.2
2,PHHF,≤ 0.2
3,LCNT,≤ 0.2
4,PPDK,≤ 0.2
5,AYFS,≤ 0.2
6,KKTP,≤ 0.2
7,YWTD,≤ 0.2
8,TWHG,≤ 0.2
9,QMEA,≤ 0.2
10,SRKP,≤ 0.2
11,PLTQ,≤ 0.2
12,RTAL,≤ 0.2
13,PNHG,≤ 0.2
14,ERQE,≤ 0.2
15,PLNR,≤ 0.2
16,ENQC,≤ 0.2
17,PMPK,≤ 0.2
18,THHD,≤ 0.2
19,DYLS,≤ 0.2
20,APGG,≤ 0.2
21,PTFP,≤ 0.2
22,SNHV,≤ 0.2
23,DRFS,≤ 0.2
24,QRTC,0.395
25,FPDR,≤ 0.2
26,IRKP,≤ 0.2

row,Variant,one-hybrid fitness for binding NBS DNA
1,IYLL,≤ 0.2
2,KKKY,≤ 0.2
3,KIMS,≤ 0.2
4,VQHM,≤ 0.2
5,SRKM,≤ 0.2
6,SRLA,≤ 0.2
7,YCES,≤ 0.2
8,VRNP,≤ 0.2
9,TRNY,≤ 0.2
10,SQDT,≤ 0.2
11,CLTV,≤ 0.2
12,QITN,≤ 0.2
13,SMAV,≤ 0.2
14,HRVT,≤ 0.2
15,PFYG,≤ 0.2
16,RLRA,0.295
17,QAEE,≤ 0.2
18,INSY,≤ 0.2
19,RNFW,≤ 0.2
20,ILYL,≤ 0.2
21,SSLC,≤ 0.2
22,RAWC,≤ 0.2
23,NKLT,≤ 0.2
24,ARCS,≤ 0.2
25,YPEC,≤ 0.2
26,PNVM,≤ 0.2

row,Variant,one-hybrid fitness for binding NBS DNA
1,VLFC,≤ 0.2
2,RTAA,0.245
3,TCNI,≤ 0.2
4,ATHD,≤ 0.2
5,QTEY,≤ 0.2
6,RNTG,≤ 0.2
7,EFTN,0.392
8,QCVG,≤ 0.2
9,NNTI,≤ 0.2
10,HRKI,≤ 0.2
11,RSNM,≤ 0.2
12,EDPT,≤ 0.2
13,ANAE,≤ 0.2
14,ALKI,≤ 0.2
15,QFQR,0.36
16,QREQ,≤ 0.2
17,RVER,≤ 0.2
18,HLYW,≤ 0.2
19,WKAR,≤ 0.2
20,NSFI,≤ 0.2
21,LTTM,≤ 0.2
22,QGRW,≤ 0.2
23,CTST,≤ 0.2
24,PTDY,≤ 0.2
25,CRRW,≤ 0.2
26,PPRF,≤ 0.2

row,Variant,one-hybrid fitness for binding NBS DNA
1,MWLI,≤ 0.2
2,QKQN,≤ 0.2
3,SMPT,≤ 0.2
4,RLCQ,≤ 0.2
5,WRSL,≤ 0.2
6,YRDS,≤ 0.2
7,HLIK,≤ 0.2
8,SRID,≤ 0.2
9,PYTT,≤ 0.2
10,WDPD,≤ 0.2
11,YWQG,≤ 0.2
12,GMTL,≤ 0.2
13,TMER,≤ 0.2
14,SPTK,≤ 0.2
15,VLHS,≤ 0.2
16,LRRM,≤ 0.2
17,KFHF,≤ 0.2
18,MCRR,0.236
19,WVGC,≤ 0.2
20,THMV,≤ 0.2
21,CLLC,≤ 0.2
22,NDMS,≤ 0.2
23,ENAG,≤ 0.2
